According to US20230108492A1 (ONCOIMMUNE, published 2023):

Biological target: T1, Siglec-10Fc (human, UniProt Q96LC7 17-546)
T1 construct: Used as the analyte in Biacore at different concentrations; also called human Siglec 10; not shown: Fc part of Siglec-10Fc
T1 sequence (looked up): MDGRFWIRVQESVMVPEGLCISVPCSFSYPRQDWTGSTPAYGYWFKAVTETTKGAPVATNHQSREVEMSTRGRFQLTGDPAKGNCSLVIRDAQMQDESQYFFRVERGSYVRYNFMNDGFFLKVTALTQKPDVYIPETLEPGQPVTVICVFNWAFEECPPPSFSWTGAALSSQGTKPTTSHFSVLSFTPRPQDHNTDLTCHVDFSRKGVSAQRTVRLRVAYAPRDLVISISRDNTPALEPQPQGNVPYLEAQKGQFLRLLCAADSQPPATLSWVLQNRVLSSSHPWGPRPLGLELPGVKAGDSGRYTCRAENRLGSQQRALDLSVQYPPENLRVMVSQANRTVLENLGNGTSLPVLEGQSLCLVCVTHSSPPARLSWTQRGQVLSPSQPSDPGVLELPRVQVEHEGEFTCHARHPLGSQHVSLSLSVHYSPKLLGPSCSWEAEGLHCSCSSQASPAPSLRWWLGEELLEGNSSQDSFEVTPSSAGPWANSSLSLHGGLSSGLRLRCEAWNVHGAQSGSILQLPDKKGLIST
Experiment: Biacore (SPR): CD24Fc immobilized on the chip, Siglec-10Fc injected at different concentrations (0 to about 9.3×10^-7 M); response in RU plotted against Siglec 10 concentration with a fitted saturation curve

Which Kd does the source give for SETTTGTSSNSSQSTSNSGLAPNPTNATT[gap - human IgG1 Fc] (Fc fusion, 6'; also called CD24Ig; CD24IgG1) [CD24Fc fusion protein (processed, secreted form)] here?
Its Kd is 162 nM.
